In this assay the target is Nonstructural protein 3 (Zika virus) (UniProt A0A024AXB9).
Setting [1] is: PRVABC59, Concentration 15.0 uM, Number of replicates 1.0.
Where [2] appears, read: PRVABC59, Concentration 50.0 uM, Number of replicates 1.0.
The mark [3] stands for this setting: PRVABC59, Concentration 10.0 uM, Number of replicates 1.0.

Hit rate of the full screen: of about 2,700 compounds, about 160 (5.9%) showed an effect of 50% or more. This is one part of the list.

UniProt A0A024AXB9, sequence (A0A024AXB9 as listed by the source): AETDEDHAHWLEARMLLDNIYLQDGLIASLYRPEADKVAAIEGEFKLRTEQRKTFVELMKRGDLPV

For `Cc1ccc([C@H](CNC(=O)c2cc(Cl)ccc2NS(=O)(=O)c2ccc(Oc3ccccc3Cl)cc2)N(C)C)cc1`, the inhibition (in general, the drop in the measured response relative to a control, in per cent) under setting [1] stood at 24.6%.
For `CC(CNC(=O)C1CCN(c2ccc(C=O)cc2)CC1)(c1ccccc1)c1ccccc1`, the inhibition under setting [2] was -6.68%.
Still for that read-out and setting: the result for `O=Cc1ccc(N2CCC(C(=O)Nc3c(Cl)cc(Cl)cc3Br)CC2)cc1` reads 22.3%.
With `O=C(c1cc(Cl)ccc1NS(=O)(=O)c1ccc(Oc2ccccc2Cl)cc1)N1CCc2cc(Cl)ccc2C1`, the inhibition under setting [1] came out at 8.02%.
Regarding `O=C(NCc1ccc(Br)cn1)c1cc(Cl)ccc1NS(=O)(=O)c1ccc(Oc2ccccc2Cl)cc1`, the inhibition under setting [1] was 41.7%.
The same measure, in the same setting: as for `O=C(Nc1c(F)c(F)cc(F)c1F)c1cc(Cl)ccc1NS(=O)(=O)c1ccc(Oc2ccccc2Cl)cc1`, the figure is 23.1%; as for `O=C(CN1CCN(C(=O)c2cc(Cl)ccc2NS(=O)(=O)c2ccc(Oc3ccccc3Cl)cc2)CC1)N1CCOCC1`, 6.13%.
Same read-out and setting: the result for `O=C(c1cc(Cl)ccc1NS(=O)(=O)c1ccc(Oc2ccccc2Cl)cc1)N1CCN(S(=O)(=O)c2cccc(Br)c2)CC1` reads 20.9%.
With `O=Cc1ccc(N2CCC(C(=O)Nc3ncnc4c3ncn4CCO)CC2)cc1`, under setting [2], the inhibition was 27.1%.
`C[C@H](NC(=O)C1CCN(c2ccc(C=O)cc2)CC1)c1ccc(Br)cc1`: the inhibition under setting [3] was 14%.
Regarding `O=C(Cn1sc2ccccc2c1=O)Nc1cccc(OCc2cn(CC(=O)Nc3ccccc3Oc3ccccc3)nn2)c1`, the inhibition (PRVABC59, Concentration 49.5 uM, Number of replicates 2.0, Standard deviation 0.019067908615904634 %) was found to be 53.7%; the inhibition (PRVABC59, Concentration 99.01 uM, Number of replicates 2.0, Standard deviation 0.0558469345004512 %) was 58.2%; the inhibition (PRVABC59, Concentration 198.0 uM, Number of replicates 2.0, Standard deviation 0.30102425600760013 %) was determined as 69.5%.
Regarding `COc1ccc(CNC(=O)C2CCN(c3ccc(C=O)cc3)CC2)c(OC)c1`, under setting [3], the inhibition was 14.4%.
With `CN(C(=O)OC(C)(C)C)[C@H]1CCN(C(=O)c2cc(Cl)ccc2NS(=O)(=O)c2ccc(Oc3ccccc3Cl)cc2)C1`, under setting [1], the inhibition turned out to be 13.2%.
Consider `O=Cc1ccc(N2CCC(C(=O)NCCc3ccc(-c4ccccc4)cc3)CC2)cc1`, for which the inhibition under setting [2] was found to be 20.5%.
Regarding `O=C(c1cc(Cl)ccc1NS(=O)(=O)c1ccc(Oc2ccccc2Cl)cc1)N(CCN1CCOCC1)Cc1ccco1`, the inhibition under setting [1] came out at 9.78%.
Still for that read-out and setting: as for `O=C(Nc1ncc(Br)nc1Cl)c1cc(Cl)ccc1NS(=O)(=O)c1ccc(Oc2ccccc2Cl)cc1`, the figure is 16.8%.
For the compound `CC(C)Nc1nc2cc(NC(=O)Cc3cocn3)ccc2[nH]1`, the inhibition is -2.25% (PRVABC59, Concentration 49.5 uM, Number of replicates 2.0, Standard deviation 2.1343169986475528 %); -3.65% (PRVABC59, Concentration 99.01 uM, Number of replicates 2.0, Standard deviation 1.9872598164035848 %); -3.27% (PRVABC59, Concentration 198.0 uM, Number of replicates 2.0, Standard deviation 2.1720750958230077 %).
On to `C[C@@H](Cc1ccc(O)cc1)NC(=O)c1cc(Cl)ccc1NS(=O)(=O)c1ccc(Oc2ccccc2Cl)cc1`, for which the inhibition under setting [1] turned out to be 33.3%.
On to `COC(=O)c1csc(Cn2ncc(C3CCNCC3)c2C)n1`, for which the inhibition reads like this: (PRVABC59, Concentration 49.5 uM, Number of replicates 2.0, Standard deviation 0.08147761319168417 %) -4.35%; (PRVABC59, Concentration 99.01 uM, Number of replicates 2.0, Standard deviation 1.037349592805416 %) -3.04%; (PRVABC59, Concentration 198.0 uM, Number of replicates 2.0, Standard deviation 2.1780367675448735 %) -0.655%.
Consider `O=C(c1cc(Cl)ccc1NS(=O)(=O)c1ccc(Oc2ccccc2Cl)cc1)N1CCN(c2ccc(C(F)(F)F)cc2)CC1`, for which the inhibition under setting [1] was 8.46%.
On to `O=Cc1ccc(N2CCC(C(=O)Nc3cnc4sccn4c3=O)CC2)cc1`, for which, under setting [2], the inhibition came out at 9.78%.
On to `Cc1cnccc1NC(=O)c1ccn(CC(C)C)n1`, for which the inhibition is -1.61% (PRVABC59, Concentration 49.5 uM, Number of replicates 2.0, Standard deviation 0.9161267428246855 %); -1.8% (PRVABC59, Concentration 99.01 uM, Number of replicates 2.0, Standard deviation 1.0850438095173138 %); -1.13% (PRVABC59, Concentration 198.0 uM, Number of replicates 2.0, Standard deviation 1.387107269831935 %).
For the compound `COc1ccc([C@@H]2CCCN2C(=O)C2CCN(c3ccc(C=O)cc3)CC2)cc1`, the inhibition under setting [2] was 22.1%.
On to `O=C(Nc1ccc(C(F)(F)F)cn1)c1cc(Cl)ccc1NS(=O)(=O)c1ccc(Oc2ccccc2Cl)cc1`, for which the inhibition under setting [1] amounted to 43.9%.
`N[C@@H]1CCCC[C@H]1C(=O)Nc1cccc2cccnc12`: the inhibition (PRVABC59, Concentration 99.9 uM, Number of replicates 2.0, Standard deviation 1.8980185851288 %) is -8.2%.
On to `COc1cc(Cc2cnc(N)c(C(F)F)c2)nc(N2CCNCC2)n1`, for which the inhibition by setting is: (PRVABC59, Concentration 49.5 uM, Number of replicates 2.0, Standard deviation 2.109695189069125 %) 1.97%; (PRVABC59, Concentration 99.01 uM, Number of replicates 2.0, Standard deviation 2.350656772053972 %) 3.23%; (PRVABC59, Concentration 198.0 uM, Number of replicates 2.0, Standard deviation 2.281444313247443 %) 3.81%.
Regarding `O=C(Nc1cnn2c1CNCC2)c1cccc2ncccc12`, the inhibition (PRVABC59, Concentration 49.5 uM, Number of replicates 2.0, Standard deviation 2.8356175456895425 %) is -4.01%; the inhibition (PRVABC59, Concentration 99.01 uM, Number of replicates 2.0, Standard deviation 4.192539000273596 %) is -3.8%; the inhibition (PRVABC59, Concentration 198.0 uM, Number of replicates 2.0, Standard deviation 2.5418114432516155 %) was -2.88%.
Consider `Cc1cnccc1NC(=O)c1cccn(C[C@@H](C)CN)c1=O`, for which the inhibition runs as follows: (PRVABC59, Concentration 49.5 uM, Number of replicates 2.0, Standard deviation 0.2332713425650035 %) 5.31%; (PRVABC59, Concentration 99.01 uM, Number of replicates 2.0, Standard deviation 0.8664360298988266 %) 7.03%; (PRVABC59, Concentration 198.0 uM, Number of replicates 2.0, Standard deviation 1.2048077884836883 %) 10.4%.
Regarding `O=Cc1ccc(N2CCC(C(=O)Nc3cc(C(F)(F)F)ccn3)CC2)cc1`, the inhibition under setting [2] amounted to 19.4%.
Regarding `O=C(Nc1nc(Cl)nc2nc[nH]c12)c1cc(Cl)ccc1NS(=O)(=O)c1ccc(Oc2ccccc2Cl)cc1`, the inhibition under setting [1] worked out at 22.5%.
`Cc1cnccc1NC(=O)c1cc(N2CCCC2)ncn1`: the inhibition runs as follows: (PRVABC59, Concentration 49.5 uM, Number of replicates 2.0, Standard deviation 2.173764594392415 %) -2.9%; (PRVABC59, Concentration 99.01 uM, Number of replicates 2.0, Standard deviation 3.074732675241127 %) -1.3%; (PRVABC59, Concentration 198.0 uM, Number of replicates 2.0, Standard deviation 4.9093569632660845 %) -9.37%.
`C[C@@H](c1ccccc1)N(C(=O)c1cc(Cl)ccc1NS(=O)(=O)c1ccc(Oc2ccccc2Cl)cc1)[C@@H](C)c1ccccc1`: the inhibition under setting [1] amounted to 20.6%.
On the same count and under the same terms, as for `O=C(c1cc(Cl)ccc1NS(=O)(=O)c1ccc(Oc2ccccc2Cl)cc1)N1CCN(c2ccc([N+](=O)[O-])cc2C(F)(F)F)CC1`, the figure is 26.7%.
Same read-out and setting: the result for `CC(CNC(=O)c1cc(Cl)ccc1NS(=O)(=O)c1ccc(Oc2ccccc2Cl)cc1)(c1ccccc1)c1ccccc1` reads 31.7%.
As to `Cc1cccc(CN2CCN(C(=O)C3CCN(c4ccc(C=O)cc4)CC3)CC2)c1`, under setting [2], the inhibition is 21.6%.
For `CC[C@]1(c2ccc(NC(=O)c3cc(Cl)ccc3NS(=O)(=O)c3ccc(Oc4ccccc4Cl)cc3)cc2)CCC(=O)NC1=O`, the inhibition under setting [1] stood at 47.5%.
Consider `Cn1c(CO)nnc1[C@H]1CCCN(C(=O)C2CCN(c3ccc(C=O)cc3)CC2)C1`, for which the inhibition under setting [2] came to 28.4%.
Consider `CN(C)C(=O)N1CCN(C(=O)c2cc(Cl)ccc2NS(=O)(=O)c2ccc(Oc3ccccc3Cl)cc2)CC1`, for which the inhibition under setting [1] was -1.74%.
Same read-out and setting: as for `C[C@H](NC(=O)c1cc(Cl)ccc1NS(=O)(=O)c1ccc(Oc2ccccc2Cl)cc1)c1ccccc1C(F)(F)F`, the figure is 42.7%.
With `C[C@H](NC(=O)C1CCN(c2ccc(C=O)cc2)CC1)c1ccccc1C(F)(F)F`, the inhibition under setting [3] turned out to be 9.41%.
`NC(=O)c1ccc(Cl)c(NC(=O)C2CCN(c3ccc(C=O)cc3)CC2)c1`: the inhibition under setting [2] turned out to be 4.96%.
As to `O=C(c1cc(Cl)ccc1NS(=O)(=O)c1ccc(Oc2ccccc2Cl)cc1)N1CCC(N2CCOCC2)CC1`, under setting [1], the inhibition was 0.883%.
As to `CS(=O)(=O)N1CCC(NC(=O)C2CCN(c3ccc(C=O)cc3)CC2)CC1`, under setting [2], the inhibition was 19.7%.
For `Cc1cnccc1NC(=O)c1cc(C2CCC2)n(C)c1C`, the inhibition runs as follows: (PRVABC59, Concentration 49.5 uM, Number of replicates 2.0, Standard deviation 0.5289258793380732 %) 0.895%; (PRVABC59, Concentration 99.01 uM, Number of replicates 2.0, Standard deviation 0.14822405989184065 %) 2.8%; (PRVABC59, Concentration 198.0 uM, Number of replicates 2.0, Standard deviation 0.4618350507387342 %) 7.47%.
With `O=C(NCc1ccc2ccccc2n1)c1cc(Cl)ccc1NS(=O)(=O)c1ccc(Oc2ccccc2Cl)cc1`, the inhibition under setting [1] turned out to be 48.8%.
On the same count and under the same terms, as for `O=C(NC[C@H](O)COc1ccccc1)c1cc(Cl)ccc1NS(=O)(=O)c1ccc(Oc2ccccc2Cl)cc1`, the figure is 47.3%.
`O=Cc1ccc(N2CCC(C(=O)Nc3ccc(OC(F)(F)F)cc3Cl)CC2)cc1`: the inhibition under setting [2] was found to be 22.5%.
Consider `CCCCCC(=O)N[C@H](C(=O)N1CCC[C@@H](N)C1)c1ccc(OCc2ccccc2)cc1`, for which the inhibition is, setting by setting: (PRVABC59, Concentration 49.5 uM, Number of replicates 2.0, Standard deviation 1.2819566042319397 %) 1.24%; (PRVABC59, Concentration 99.01 uM, Number of replicates 2.0, Standard deviation 1.4296380445226269 %) 2.71%; (PRVABC59, Concentration 198.0 uM, Number of replicates 2.0, Standard deviation 1.2245250957414489 %) 3.4%.
On to `O=Cc1ccc(N2CCC(C(=O)N3CCS[C@H]3c3ccc([N+](=O)[O-])cc3)CC2)cc1`, for which the inhibition under setting [2] is 50%.
Consider `Cc1ccccc1OC1CN(C(=O)c2cc(Cl)ccc2NS(=O)(=O)c2ccc(Oc3ccccc3Cl)cc2)C1`, for which the inhibition under setting [1] is -1.98%.
As to `O=Cc1ccc(N2CCC(C(=O)Nc3ccc([N+](=O)[O-])cc3C(F)(F)F)CC2)cc1`, the inhibition under setting [2] is 20.2%.
